{"source": "the supplement of paper PMC10369915", "binders": {"B1": {"name": "JUP_HUMAN_550 (peptide)", "chain": "AAGTQQPYTDGVRME"}, "B2": {"name": "INSR_HUMAN_1185_YA (peptide)", "chain": "FGMTRDIYETDAARK"}, "B3": {"name": "ITB7_HUMAN_778 (peptide)", "chain": "KQDSNPLYKSAITTT"}, "B4": {"name": "ITSN2_HUMAN_553 (peptide)", "chain": "EYQNKLIYLVPEKQL"}, "B5": {"name": "INP4A_HUMAN_355 (peptide)", "chain": "DGGSDQNYDIVTIGA"}, "B6": {"name": "JAK2_HUMAN_1007_YA (peptide)", "chain": "VLPQDKEYAKVKEPG"}, "B7": {"name": "IMDH2_HUMAN_400 (peptide)", "chain": "TTEAPGEYFFSDGIR"}, "B8": {"name": "INSR_HUMAN_1190_YA (peptide)", "chain": "DIAETDAYRKGGKGL"}, "B9": {"name": "INSRR_HUMAN_1146 (peptide)", "chain": "DVYETDYYRKGGKGL"}, "B10": {"name": "IMA4_HUMAN_484 (peptide)", "chain": "AFEIIDQYFSGDDID"}, "B11": {"name": "JAK2_HUMAN_373_YA (peptide)", "chain": "VSLIDGAYRLTADAH"}, "B12": {"name": "JUNB_HUMAN_188 (peptide)", "chain": "VYTNLSSYSPASASS"}, "B13": {"name": "K1C18_HUMAN_36 (peptide)", "chain": "VSSAASVYAGAGGSG"}, "B14": {"name": "ALK_HUMAN_1078 (peptide)", "chain": "MELQSPEYKLSKLRT"}, "B15": {"name": "IRS1_HUMAN_989 (peptide)", "chain": "VPSSRGDYMTMQMSC"}, "B16": {"name": "ALK_HUMAN_1092 (peptide)", "chain": "TSTIMTDYNPNYCFA"}, "B17": {"name": "IRS1_HUMAN_1229 (peptide)", "chain": "SSEDLSAYASISFQK"}, "B18": {"name": "IRS2_HUMAN_653 (peptide)", "chain": "NLGADDGYMPMTPGA"}}, "note": "The list shows a part of the results. Cut-off read from the data, not from the text of the source: active = 3.2 or more and inactive = the rest. The signal is at background level for most entries.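 Note: displayed peptides selected on beads carrying the immobilized SH2 domain, with library peptides lacking any tyrosine serving as negative controls.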", "data": [{"target": "SHP2 C-SH2 domain E139D", "assay": "enrichment score (SH2-bound / input frequency) (ratio); higher = stronger binding; tyrosines were phosphorylated by kinases first", "conditions": "peptide library: Human pTyr", "values": [{"binder": "B1", "enrichment score": "inactive: 0.604"}, {"binder": "B2", "enrichment score": "inactive: 0.668"}, {"binder": "B3", "enrichment score": "inactive: 0.773"}, {"binder": "B4", "enrichment score": "inactive: 0.734"}, {"binder": "B5", "enrichment score": "inactive: 0.917"}, {"binder": "B6", "enrichment score": "inactive: 1.05"}, {"binder": "B7", "enrichment score": "inactive: 0.592"}, {"binder": "B8", "enrichment score": "inactive: 1.03"}, {"binder": "B9", "enrichment score": "inactive: 0.81"}, {"binder": "B10", "enrichment score": "inactive: 1.49"}, {"binder": "B11", "enrichment score": "inactive: 0.462"}, {"binder": "B12", "enrichment score": "inactive: 0.619"}, {"binder": "B13", "enrichment score": "inactive: 0.599"}, {"binder": "B14", "enrichment score": "inactive: 0.676"}, {"binder": "B15", "enrichment score": "inactive: 0.982"}, {"binder": "B16", "enrichment score": "inactive: 1.03"}, {"binder": "B17", "enrichment score": "inactive: 1.71"}, {"binder": "B18", "enrichment score": "inactive: 0.546"}]}, {"target": "SHP2 C-SH2 domain wild-type", "assay": "enrichment score (SH2-bound / input frequency) (ratio); higher = stronger binding; tyrosines were phosphorylated by kinases first", "conditions": "peptide library: Human pTyr", "values": [{"binder": "B1", "enrichment score": "inactive: 0.548"}, {"binder": "B2", "enrichment score": "inactive: 0.775"}, {"binder": "B3", "enrichment score": "inactive: 0.545"}, {"binder": "B4", "enrichment score": "inactive: 0.932"}, {"binder": "B5", "enrichment score": "inactive: 0.991"}, {"binder": "B6", "enrichment score": "inactive: 1.28"}, {"binder": "B7", "enrichment score": "inactive: 0.263"}, {"binder": "B8", "enrichment score": "inactive: 0.681"}, {"binder": "B9", "enrichment score": "inactive: 0.634"}, {"binder": "B10", "enrichment score": "inactive: 1.37"}, {"binder": "B11", "enrichment score": "inactive: 0.412"}, {"binder": "B12", "enrichment score": "inactive: 0.781"}, {"binder": "B13", "enrichment score": "inactive: 0.534"}, {"binder": "B14", "enrichment score": "inactive: 0.602"}, {"binder": "B15", "enrichment score": "inactive: 0.869"}, {"binder": "B16", "enrichment score": "inactive: 0.977"}, {"binder": "B17", "enrichment score": "inactive: 3.16"}, {"binder": "B18", "enrichment score": "inactive: 0.432"}]}, {"target": "SHP2 N-SH2 domain L43F", "assay": "enrichment score (SH2-bound / input frequency) (ratio); higher = stronger binding; tyrosines were phosphorylated by kinases first", "conditions": "peptide library: Human pTyr", "values": [{"binder": "B1", "enrichment score": "inactive: 0.68"}, {"binder": "B2", "enrichment score": "inactive: 0.769"}, {"binder": "B3", "enrichment score": "inactive: 0.548"}, {"binder": "B4", "enrichment score": "active: 9.35"}, {"binder": "B5", "enrichment score": "inactive: 0.779"}, {"binder": "B6", "enrichment score": "inactive: 0.854"}, {"binder": "B7", "enrichment score": "inactive: 0.384"}, {"binder": "B8", "enrichment score": "inactive: 0.784"}, {"binder": "B9", "enrichment score": "inactive: 0.691"}, {"binder": "B10", "enrichment score": "inactive: 0.916"}, {"binder": "B11", "enrichment score": "inactive: 0.496"}, {"binder": "B12", "enrichment score": "inactive: 0.464"}, {"binder": "B13", "enrichment score": "inactive: 0.546"}, {"binder": "B14", "enrichment score": "inactive: 0.834"}, {"binder": "B15", "enrichment score": "inactive: 1.07"}, {"binder": "B16", "enrichment score": "inactive: 1.09"}, {"binder": "B17", "enrichment score": "inactive: 1.45"}, {"binder": "B18", "enrichment score": "inactive: 0.506"}]}, {"target": "SHP2 N-SH2 domain T42A", "assay": "enrichment score (SH2-bound / input frequency) (ratio); higher = stronger binding; tyrosines were phosphorylated by kinases first", "conditions": "peptide library: Human pTyr", "values": [{"binder": "B1", "enrichment score": "inactive: 0.694"}, {"binder": "B2", "enrichment score": "inactive: 0.665"}, {"binder": "B3", "enrichment score": "inactive: 0.547"}, {"binder": "B4", "enrichment score": "active: 3.62"}, {"binder": "B5", "enrichment score": "inactive: 0.723"}, {"binder": "B6", "enrichment score": "inactive: 0.821"}, {"binder": "B7", "enrichment score": "inactive: 0.578"}, {"binder": "B8", "enrichment score": "inactive: 0.823"}, {"binder": "B9", "enrichment score": "inactive: 0.815"}, {"binder": "B10", "enrichment score": "inactive: 1.06"}, {"binder": "B11", "enrichment score": "inactive: 0.463"}, {"binder": "B12", "enrichment score": "inactive: 0.566"}, {"binder": "B13", "enrichment score": "inactive: 0.548"}, {"binder": "B14", "enrichment score": "inactive: 0.861"}, {"binder": "B15", "enrichment score": "inactive: 0.91"}, {"binder": "B16", "enrichment score": "inactive: 1.17"}, {"binder": "B17", "enrichment score": "inactive: 1.66"}, {"binder": "B18", "enrichment score": "inactive: 0.477"}]}, {"target": "SHP2 N-SH2 domain T52S", "assay": "enrichment score (SH2-bound / input frequency) (ratio); higher = stronger binding; tyrosines were phosphorylated by kinases first", "conditions": "peptide library: Human pTyr", "values": [{"binder": "B1", "enrichment score": "inactive: 0.5"}, {"binder": "B2", "enrichment score": "inactive: 0.731"}, {"binder": "B3", "enrichment score": "inactive: 0.771"}, {"binder": "B4", "enrichment score": "active: 5.49"}, {"binder": "B5", "enrichment score": "inactive: 0.946"}, {"binder": "B6", "enrichment score": "inactive: 1.2"}, {"binder": "B7", "enrichment score": "inactive: 0.384"}, {"binder": "B8", "enrichment score": "inactive: 1.04"}, {"binder": "B9", "enrichment score": "inactive: 0.74"}, {"binder": "B10", "enrichment score": "inactive: 1.16"}, {"binder": "B11", "enrichment score": "inactive: 0.488"}, {"binder": "B12", "enrichment score": "inactive: 0.536"}, {"binder": "B13", "enrichment score": "inactive: 0.578"}, {"binder": "B14", "enrichment score": "inactive: 0.748"}, {"binder": "B15", "enrichment score": "inactive: 1.01"}, {"binder": "B16", "enrichment score": "inactive: 1.05"}, {"binder": "B17", "enrichment score": "inactive: 1.52"}, {"binder": "B18", "enrichment score": "inactive: 0.476"}]}, {"target": "SHP2 N-SH2 domain wild-type", "assay": "enrichment score (SH2-bound / input frequency) (ratio); bacterial display of known human phosphotyrosine sites (pTyr-Var adds point mutants) read by sequencing; higher = stronger binding; tyrosines were phosphorylated by kinases first", "conditions": "peptide library: Human pTyr", "values": [{"binder": "B1", "enrichment score": "inactive: 0.677"}, {"binder": "B2", "enrichment score": "inactive: 0.74"}, {"binder": "B3", "enrichment score": "inactive: 0.7"}, {"binder": "B4", "enrichment score": "inactive: 1.44"}, {"binder": "B5", "enrichment score": "inactive: 0.902"}, {"binder": "B6", "enrichment score": "inactive: 0.988"}, {"binder": "B7", "enrichment score": "inactive: 0.429"}, {"binder": "B8", "enrichment score": "inactive: 0.827"}, {"binder": "B9", "enrichment score": "inactive: 0.832"}, {"binder": "B10", "enrichment score": "inactive: 1.26"}, {"binder": "B11", "enrichment score": "inactive: 0.448"}, {"binder": "B12", "enrichment score": "inactive: 0.561"}, {"binder": "B13", "enrichment score": "inactive: 0.494"}, {"binder": "B14", "enrichment score": "inactive: 0.776"}, {"binder": "B15", "enrichment score": "inactive: 1.04"}, {"binder": "B16", "enrichment score": "inactive: 1.06"}, {"binder": "B17", "enrichment score": "inactive: 1.29"}, {"binder": "B18", "enrichment score": "inactive: 0.422"}]}]}
